In patent publication US20020013306A1, “TERPYRIDINE-PLATINUM(II) COMPLEXES” (priority 1996, published 2002):

Tests used:
[1] = tested on: L. donovani (MHOM/ET/67/L82) amastigotes; test: Leishmania donovani amastigotes in mouse peritoneal macrophages
Procedure: Leishmania: L. donovani (MHOM/ET/67/L82) amastigotes, derived from hamster spleen were used to infect mouse peritoneal macrophages in Labtek chamber slides. Infected macrophages were maintained in the presence of the drug at 30 μM and 3 μM in quadruplicate cultures for 5 days at 37° C. Drug activity is measured from % macrophages cleared of amastigotes in treated cultures. Sodium stibogluconate was used as the positive control.
The assays follow those outlined in Screen 1- Protocol 1 but include a range of doses in a dilution series from 30 μM. Dose response curves were analysed by linear regression and ED50 values determined. T. brucei numbers/ml are determined using a Coulter Counter.

[2] = Acid/base stability by NMR; conditions: trifluoroacetic acid in deuterated methanol; immediately and 1, 2, 4, 24 hours
Procedure: Diethylamine (2 ml) was added to a solution of 4′-aziridinoterpyridine (5 mg) in deuterated chloroform in a NMR tube.
Trifluoroacetic acid (5 g) was added to a solution of 4′-aziridinoterpyridine (15 mg) in deuterated methanol in an NMR tube. NMR spectra were recorded immediately and after 1, 2, 4 and 24 hours.

| Molecule | % Inhibition, Leishmania donovani ([1]; 1 μM) [%] | % Inhibition, Leishmania donovani ([1]; 3 μM) [%] | % Inhibition, Leishmania donovani ([1]; 10 μM) [%] | % Inhibition, Leishmania donovani ([1]; 30 μM) [%] | % Inhibition, Leishmania donovani ([1]; 1 μM, listed as 12, 1 µM) | stability to acid [2] |
| --- | --- | --- | --- | --- | --- | --- |
| F[B-](F)(F)F.F[B-](F)(F)F.OCc1cc[n+]([Pt-2]23[n+]4ccccc4-c4cccc([n+]42)-c2cccc[n+]23)cc1 [Compound A9] | 0 | 0.8 | 61.5 |  |  |  |
| Cc1ccncc1.F[B-](F)(F)F.F[B-](F)(F)F.OCCNc1cc(-c2ccccn2)nc(-c2ccccn2)c1.[Pt+2] [U, (4-Picoline)(4′-(N-2-Hydroxyethyl)amino-2,2′:6′,2″-Terpyridine) Platinum (II) Tetrafluoroborate] | 0 | 0 | 0 |  |  |  |
| Cc1ccncc1.F[B-](F)(F)F.F[B-](F)(F)F.[Pt+2].c1ccc(-c2cccc(-c3ccccn3)n2)nc1 [A, 4-picoline-2,2′:6′:2″-terpyridine-platinum(II) tetrafluoroborate] | 0.5 | 4.5 | 1.2 |  |  |  |
| CC#[N+][Pt-2]12[n+]3ccccc3-c3cccc([n+]31)-c1cccc[n+]12.F[B-](F)(F)F.F[B-](F)(F)F [Compound A8] | 0 | 3.9 | 82.8 | 100 |  |  |
| Cc1cc[n+]([Pt-2]23[n+]4ccccc4-c4cc(Cl)cc([n+]42)-c2cccc[n+]23)cc1.F[B-](F)(F)F.F[B-](F)(F)F [I] | 2.5 | 47.9 | 89.5 | 93.3 |  |  |
| Cc1ccncc1.Cc1ccncc1.F[B-](F)(F)F.F[B-](F)(F)F.F[B-](F)(F)F.F[B-](F)(F)F.O=C(CCCCC(=O)NNc1cc(-c2ccccn2)nc(-c2ccccn2)c1)NNc1cc(-c2ccccn2)nc(-c2ccccn2)c1.[Pt+2].[Pt+2] [V, Adipoyl-Linked-Bis[4-Picoline(4′-Hydrazino-2,2′:6′,2″-Terpyridine) Platinum(II)] Tetrafluoroborate] | 0 | 0 | 0 | 0 |  |  |
| 4-Picoline 4′-amino-2,2′:6′,2″-terpyridine platinum II tetrafluoroborate [X] | 0 | 100 | 100 | 100 |  |  |
| F[B-](F)(F)F.F[B-](F)(F)F.c1cc[n+]2c(c1)-c1cccc3[n+]1[Pt-2]2([n+]1ccsc1)[n+]1ccccc1-3 [Compound A6] | 0 | 2.1 | 30.8 |  |  |  |
| Ammonio 4′-chloro-2,2′:6′,2″-terpyridine platinum II tetrafluoroborate [Compound I12] | 99 | 99 | 100 | 100 | completely cleared |  |
| CN(N)c1cc(-c2ccccn2)nc(-c2ccccn2)c1.Cc1ccncc1.F[B-](F)(F)F.F[B-](F)(F)F.[Pt+2] [S, (4-Picoline)(4′-(1 -Methylhydrazino)-2,2′:6′,2″-Terpyridine) Platinum (II) Tetra-fluoroborate] | 0 | 0 | 0 | 0 |  |  |
| Brc1ccc(-c2cc(-c3ccccn3)nc(-c3ccccn3)c2)cc1.F[B-](F)(F)F.F[B-](F)(F)F.N.[Pt+2] [Compound Q12, Ammonio 4′-(4-bromophenyl)-2,2′:6′,2″-terpyridine platinum II tetrafluoroborate] |  | 100 | 100 | 100 |  |  |
| c1ccc(-c2cc(N3CC3)cc(-c3ccccn3)n2)nc1 [4′-aziridinoterpyridine, 4′-Aziridino-2,2′:6′,2″-Terpyridine] |  |  |  |  |  | susceptible to nucleophilic attack in the presence of H^+ |
| [Cl-].[Cl-].[Pt+2].c1ccc(-c2cccc(-c3ccccn3)n2)nc1 [Compound A13, chloro(2,2′:6′,2″-terpyridine)platinum(II) chloride] | 0 | 22.0 | 94.9 | 99.1 |  |  |
| CN(NC(=O)CCCCC(=O)NN(C)c1cc(-c2ccccn2)nc(-c2ccccn2)c1)c1cc(-c2ccccn2)nc(-c2ccccn2)c1.Cc1ccncc1.Cc1ccncc1.F[B-](F)(F)F.F[B-](F)(F)F.F[B-](F)(F)F.F[B-](F)(F)F.[Pt+2].[Pt+2] [W, Adipoyl-Linked-Bis[4-Picoline(4′-(1 -Methylhydrazino)-2,2′:6′,2″-Terpyridine) Platinum(II)] Tetrafluoroborate] | 0 | 0 | 0 | 0 |  |  |
| CC(=O)c1cc[n+]([Pt-2]23[n+]4ccccc4-c4cccc([n+]42)-c2cccc[n+]23)cc1.F[B-](F)(F)F.F[B-](F)(F)F [Compound A2] | 0 | 0.2 | 27.0 | 45.5 |  |  |
| Cc1ccncc1.F[B-](F)(F)F.F[B-](F)(F)F.[Pt+2].c1ccc(-c2cc(N3CC3)cc(-c3ccccn3)n2)nc1 [T, (4-Picoline)(4′-Aziridino-2,2′:6′,2″-Terpyridine) Platinum (II) Tetra-fluoroborate] | 0 | 0 |  |  |  |  |
| Brc1cc[n+]([Pt-2]23[n+]4ccccc4-c4cccc([n+]42)-c2cccc[n+]23)cc1.F[B-](F)(F)F.F[B-](F)(F)F [Compound A1] | 0 | 0 | 0.2 |  |  |  |
| Cc1cc[n+]([Pt-2]23[n+]4ccccc4-c4cc(-c5ccc(Br)cc5)cc([n+]42)-c2cccc[n+]23)cc1.F[B-](F)(F)F.F[B-](F)(F)F [Q] | 31.4 | 99.8 | 100 | 100 |  |  |
| F[B-](F)(F)F.F[B-](F)(F)F.[NH3+][Pt-2]12[n+]3ccccc3-c3cccc([n+]31)-c1cccc[n+]12 [Compound A12] | 5.0 | 27.5 | 91.7 | 90.1 |  |  |
| CN(C)c1cc[n+]([Pt-2]23[n+]4ccccc4-c4cccc([n+]42)-c2cccc[n+]23)cc1.F[B-](F)(F)F.F[B-](F)(F)F [Compound A3] | 0 | 0 | 11.6 | 97.5 |  |  |
| Cc1ccncc1.F[B-](F)(F)F.F[B-](F)(F)F.NNc1cc(-c2ccccn2)nc(-c2ccccn2)c1.[Pt+2] [R, (4-Picoline)(4′-Hydrazino-2,2′:6′,2″-Terpyridine) Platinum (II) Tetrafluoroborate] | 0 | 0 | 0 |  |  |  |
| F[B-](F)(F)F.F[B-](F)(F)F.Fc1ccc[n+]([Pt-2]23[n+]4ccccc4-c4cccc([n+]42)-c2cccc[n+]23)c1 [Compound A5] | 0 | 0 | 44.9 | 96.9 |  |  |
| F[B-](F)(F)F.F[B-](F)(F)F.Fc1cccc[n+]1[Pt-2]12[n+]3ccccc3-c3cccc([n+]31)-c1cccc[n+]12 [Compound A4] | 0 | 0 | 31.5 | 100 |  |  |
